Laboratory results: PubChem BioAssay AID360 (National Center for Advancing Translational Sciences (NCATS), 2006)
Hit rate of the full screen: of about 48,000 compounds, about 550 (1.1%) were called active. Another 4% or so got no clear call; they are omitted. Cut-off read from the data, not from the text of the source: active = potency below about 15 µM; inconclusive = mostly about 16 µM to 33 µM; inactive = weaker than that. This is one part of the list.

target: Lysosomal acid glucosylceramidase (Homo sapiens) (UniProt P04062); assay: Glucocerebrosidase; conditions: purified enzyme, resorufin glucoside fluorescence (screen aimed at inhibitors), 20 min;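 note: the screen sought inhibitors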
In short: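 Compounds titrated against 0.2 nM normal enzyme, 30 uM resorufin beta-D-glucopyranoside substrate, citrate/phosphate buffer with taurocholate and tween-20, pH 5.9. Reaction ran 20 min at room temperature; fluorescence (Ex 548/Em 600) gave AC50.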
Potency is the fitted concentration of half-maximal effect.

Sequence of UniProt P04062 (P04062 whole entry, looked up): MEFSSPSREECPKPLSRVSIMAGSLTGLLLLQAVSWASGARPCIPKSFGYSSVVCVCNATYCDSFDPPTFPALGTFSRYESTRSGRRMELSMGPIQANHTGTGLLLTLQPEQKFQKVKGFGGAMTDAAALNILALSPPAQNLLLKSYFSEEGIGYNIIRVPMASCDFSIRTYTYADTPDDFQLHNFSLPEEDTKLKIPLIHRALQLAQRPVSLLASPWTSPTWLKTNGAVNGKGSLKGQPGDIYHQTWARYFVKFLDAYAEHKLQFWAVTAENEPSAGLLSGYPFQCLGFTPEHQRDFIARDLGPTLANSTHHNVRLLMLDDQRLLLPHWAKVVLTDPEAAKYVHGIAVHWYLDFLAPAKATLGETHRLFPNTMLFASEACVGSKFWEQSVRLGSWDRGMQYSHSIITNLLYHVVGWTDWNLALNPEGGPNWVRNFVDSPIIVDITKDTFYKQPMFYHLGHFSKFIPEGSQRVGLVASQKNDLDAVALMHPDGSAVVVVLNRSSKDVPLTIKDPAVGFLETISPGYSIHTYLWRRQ

Structure (SMILES) | Potency
Cc1ccc(C)c(NC(=O)c2ccccn2)c1 | inactive: > 76.9 µM
COC(=O)c1ccccc1OC(=O)c1ccc(Br)o1 | inactive: > 76.9 µM
COc1cc(OC)c(OC)cc1CN(C)CCc1ccccn1 | active: 15.1 µM
CCn1c(C)nc2cc(C(=O)OCCC(F)(F)F)ccc21 | active: 10.7 µM
CCOc1cccc(/C(O)=C2/C(=O)C(=O)N(CCOC)C2c2ccco2)c1 (stereo not drawn) | inactive: > 76.9 µM
CC(C)CCNC(=O)NC(=O)CSc1nnc(-c2ccccc2F)n1N | inactive: > 76.9 µM
Cc1c(C)c2cc(Cl)c(O)c(CN(C)C)c2oc1=O | inactive: > 76.9 µM
COc1ccc2c(c1)c(C(=O)OCCN(C)C)c(C)n2C | inactive: > 76.9 µM
COC(=O)c1cn(NC(=O)C2CCCO2)c(=O)c2ccccc12 (stereo not drawn) | inactive: > 76.9 µM
CC(C)C(=O)Nc1cccc(C(=O)NCc2ccc3c(c2)OCO3)c1 | inactive: > 76.9 µM
COc1ccc(CCNC(=O)COC(=O)c2cnc(C)cn2)cc1OC | inactive: > 76.9 µM
Cc1sc2ncnc(SCc3ccco3)c2c1C | inactive: > 76.9 µM
CC1CC(C)CN(CCCNC(=O)c2ccc(CS(=O)(=O)Cc3ccccc3F)o2)C1 (stereo not drawn) | inactive: > 76.9 µM
Cc1cc(C)cc(OCc2nnc(SCC(=O)c3ccccc3)o2)c1 | inactive: > 76.9 µM
CCOC(=O)c1sc2ncn(C(CC)C(=O)OCC)c(=O)c2c1C (stereo not drawn) | inactive: > 76.9 µM
Cc1nn(-c2ccccc2)c2[nH]c(=O)c(CNCCN3CCOCC3)cc12 | inactive: > 76.9 µM
CCOC(=O)C1CCCN(C(=O)c2ccccc2SCCOC)C1 (stereo not drawn) | inactive: > 76.9 µM
CCS(=O)(=O)N1CCC(C(=O)NCCCN2CCC(Cc3ccccc3)CC2)CC1 | inactive: > 76.9 µM
COc1cccc(C(C(=O)NCc2ccco2)N(C(=O)Cn2nnc3ccccc32)C2CC2)c1OC (stereo not drawn) | inactive: > 76.9 µM
Cc1ccc(-c2cnc(NC(=O)CCC(=O)N3CCCCC3)n2C)cc1 | inactive: > 76.9 µM
CC(C)N(CCCNC(=O)C1CCN(S(=O)(=O)N2CCOCC2)CC1)Cc1ccccc1 | inactive: > 76.9 µM
Cc1ccc2cc3c(nc2c1)N(Cc1ccco1)CC3 | inactive: > 76.9 µM
CSC1=NC(NCCCO)c2c(sc3c2CC(C)(C)OC3)N1 (stereo not drawn) | inactive: > 76.9 µM
CCc1nc(C)cc(N)c1OCc1ccccc1 | inactive: > 76.9 µM

Structure (SMILES) | Potency
CCOC(=O)N1CCN(C(=O)Cn2nc(C)c3sc4ccccc4c3c2=O)CC1 | inactive: > 76.9 µM
CN(C)C(=O)CSc1nnc(CCCCCNC(=O)OC(C)(C)C)o1 | inactive: > 76.9 µM
Cc1ccc(-c2csc3ncn(/N=C/N(C)C)c(=O)c23)o1 | inactive: > 76.9 µM
COc1ccc(-c2nn3c(-c4ccncc4)nnc3s2)cc1OC | inactive: > 76.9 µM
CCCCCCOc1cccc(N)c1 | inactive: > 76.9 µM
CCCCOc1ccc(-c2nnn(CCC(=O)N3CCOCC3)n2)cc1 | inactive: > 76.9 µM
CNC(=O)OCc1cccc(COC(=O)NC)n1 | inactive: > 76.9 µM
O=C(NCCc1ccc(Cl)cc1)C1CCC(=O)N1C1CCCC1 (stereo not drawn) | inactive: > 76.9 µM
CCn1c(=O)c2c3c(sc2n(C)c1=O)CCC3 | inactive: > 76.9 µM
CC(C)(O)C#Cc1ccc(C(=O)NCc2cccs2)s1 | inactive: > 15.4 µM
Cc1oc2c(CN(C)C)c(O)ccc2c(=O)c1-c1ccc2ccccc2n1 | inactive: > 76.9 µM
COC(=O)c1cc2oc3ccccc3c2n1Cc1ccccn1 | inactive: > 76.9 µM
COC(=O)c1sccc1NC(=O)C1CC2CCC1C2 (stereo not drawn) | inactive: > 76.9 µM
COc1ccc(-c2nnc(SCc3nnc(-c4ccccc4)o3)n2C)cc1OC | inactive: > 76.9 µM
CC(=O)NC(CCS(C)(=O)=O)C(=O)Nc1nccs1 (stereo not drawn) | inactive: > 76.9 µM
O=C(NCc1cccs1)c1nn2cccnc2c1Cl | inactive: > 76.9 µM
CNC(=O)/C(=N\O)c1ccccc1 | inactive: > 76.9 µM
CCOC(=O)C1CCN(C(=O)c2ccc(Cl)c(Cl)c2)CC1 | inactive: > 76.9 µM
CCCn1c(CNc2ccccc2O)nc2ccccc21 | inactive: > 76.9 µM
CC1CCN(CCCNC(=O)c2n[nH]c(=O)c3ccccc23)CC1 | inactive: > 76.9 µM
Cn1c(=O)n(Cc2ccccc2)c(=O)c2c1nc1n2CCS1 | inactive: > 76.9 µM
Cc1cc(N2CCC(C(=O)NC3CCCCC3)CC2)nc(-c2ccccc2)n1 | inactive
CCOc1ccc(NC(=O)Nc2ccc3c(c2)nnn3C)cc1 | inactive: > 76.9 µM
CCn1c(SCC(=O)c2cc(OC)ccc2OC)nnc1C1CC1 | inactive: > 76.9 µM

Structure (SMILES) | Potency
c1ccc(CCc2nn3c(Cn4nnc5ccccc54)nnc3s2)cc1 | inactive: > 76.9 µM
CCOC(=O)CSc1nc2c(c(=O)n(C)c(=O)n2C)n1CCCc1ccccc1 | inactive: > 76.9 µM
Cn1c(=O)cc(OCC(=O)N2CCCc3ccccc32)c2ccccc21 | inactive: > 76.9 µM
CCOC(=O)C(C(C)=O)c1nc(C)nc2c1nnn2Cc1ccccc1Cl (stereo not drawn) | inactive: > 76.9 µM
CCOc1ccc(CCNC(=O)C2CCCN(c3nn4c(=O)cc(C)nc4s3)C2)cc1OCC (stereo not drawn) | inactive: > 76.9 µM
O=C(Nc1ccccn1)[C@@H]1CCC(=O)N1C(=O)OCc1ccccc1 | inactive: > 76.9 µM
CCOC(=O)N1CCN(C(=O)Cc2ccc(-n3c(=O)[nH]c4ccccc4c3=O)cc2)CC1 | inactive: > 76.9 µM
O=C(Nc1cccnc1)c1cccs1 | inactive: > 76.9 µM
Cc1ccc(S(=O)(=O)NC(C)C(=O)Nc2ccc(C(N)=O)cc2)cc1 (stereo not drawn) | inactive: > 76.9 µM
O=c1c2ccccc2c(/C=N/c2ncn[nH]2)c(O)n1Cc1ccccc1 | inactive: > 76.9 µM
COc1ccc(OC(C)C(=O)N2CCN(c3ccccn3)CC2)cc1 (stereo not drawn) | inactive
COc1cc(Cl)c(C)cc1NC(=O)CSc1nc2ccccc2o1 | inactive
CCn1cc(C(=O)NCc2ccco2)c(=O)c2cc(S(=O)(=O)N3CCC(C)CC3)ccc21 | inactive: > 76.9 µM
COC(=O)[C@@H](NC(=O)Nc1ccc(OC)cc1)C(C)C | inactive: > 76.9 µM
O=C(N1CCN(Cc2ccccc2)CC1)C12CC3CC(CC(C3)C1)C2 | inactive: > 76.9 µM
CCCc1[nH]nc2c1C(c1ccc(OCCN3CCOCC3)c(OC)c1)C(C#N)=C(N)O2 (stereo not drawn) | inactive: > 76.9 µM
Cc1ccc(C)c(-n2c(Cc3cc(=O)[nH]c(=O)[nH]3)nnc2SCC(=O)NCC2CCCO2)c1 (stereo not drawn) | inactive: > 76.9 µM
O=C(COC(=O)c1ccccc1Nc1ccccc1)NCc1ccco1 | inactive: > 76.9 µM
O=C1NC(c2ccccc2)(C(F)(F)F)C(=O)N1Cc1cccnc1 (stereo not drawn) | inactive: > 76.9 µM
CCNc1nc(NC(C)(C)C)nc(N(C#N)CC)n1 | inactive: > 76.9 µM
Cn1c(CC2C(=O)Nc3ccc(Br)cc32)nc2ccccc2c1=O (stereo not drawn) | inactive: > 76.9 µM
Cc1cc(C)n2nc(SCC(=O)N(C(C)C)C(C)C)nc2n1 | inactive: > 76.9 µM
C=CCn1c(C)cc(C(=O)CSc2nc3ccccc3c(=O)[nH]2)c1C | inactive: > 76.9 µM
C=CCC(NCc1ccco1)c1ccc(OC)cc1OC (stereo not drawn) | inactive: > 76.9 µM

Structure (SMILES) | Potency
COc1ccc(N2CCCCn3c2nc2c3c(=O)n(C)c(=O)n2C)cc1 | inactive: > 76.9 µM
Cc1c(C(O)CN2CCC(C(N)=O)CC2)c2ccccc2n1C (stereo not drawn) | inactive: > 76.9 µM
COCCNC(=O)CN(C(=O)CCC(=O)Nc1ccccn1)c1ccc(F)cc1 | inactive: > 76.9 µM
Cc1cc2ccccc2c(=O)n1CC(=O)Nc1ccc2c(c1)OCCO2 | inactive: > 76.9 µM
O=C(COC(=O)c1cccs1)NCc1ccc2c(c1)OCO2 | inactive: > 76.9 µM
Cn1c(CC(=O)Nc2ccccc2)nnc1SCCOc1ccccc1 | inactive: > 76.9 µM
Cc1ccc(C)c2[nH]c(=O)c(CN(CCN3CCOCC3)Cc3nnnn3CC3CCCO3)cc12 (stereo not drawn) | inactive: > 76.9 µM
Cc1cccc(NCN2C(=O)c3ccncc3C2=O)n1 | inactive: > 76.9 µM
COc1ccc(OCC(=O)Nc2ncc3c(n2)CC(C)(C)CC3=O)cc1 | inactive: > 76.9 µM
Cc1ccc(NC(=O)COC(=O)c2ccnn2C)cc1 | inactive: > 76.9 µM
CCOC(=O)C1CCN(C(=O)CN(c2ccc3c(c2)OCO3)S(C)(=O)=O)CC1 | inactive: > 76.9 µM
Cc1cc(=O)oc2cc(OCC(O)CN3CCN(c4ccccc4)CC3)ccc12 (stereo not drawn) | inactive: > 76.9 µM
O=C(NC(c1ccccc1)c1ccccc1)N1CCN(CCO)CC1 | inactive: > 76.9 µM
CCOc1cc(NC(=O)c2ccco2)c(OCC)cc1NC(=O)CCC(=O)NCc1cccnc1 | inactive: > 76.9 µM
CCn1c(SCC(=O)c2c[nH]c3ccccc23)nnc1-c1cccs1 | inactive: > 76.9 µM
Cc1nn(Cc2ccc(Br)cc2)c(C)c1NC(=O)c1nn(C)cc1Cl | inactive: > 76.9 µM
Oc1c(C(Nc2ccccn2)c2ccccn2)ccc2cccnc12 (stereo not drawn) | inactive: > 76.9 µM
Cc1cc(C)nc(NC(=O)CSc2nnnn2-c2ccccc2)n1 | inactive: > 76.9 µM
CCOCC(=O)Nc1cccc(Br)c1 | inactive: > 76.9 µM
COC(=O)c1cc(NC(=O)CN2CCC(C(N)=O)(N3CCCCC3)CC2)cc(C(=O)OC)c1 | inactive: > 76.9 µM
O=C(Cn1cnc2c(cnn2-c2ccc(F)cc2)c1=O)N1CCN(c2ccccc2)CC1 | inactive: > 76.9 µM
